{"source": "the supplement of paper PMC10126150", "note": "Sequences with one replicate were seen in a single cluster, so their values are uncertain.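 Note: ATP exposure 15 min at 22 °C before imaging.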", "data": [{"tested_on": "ATP", "assay": "switch fluorescence ratio, 500 uM ATP over buffer (Cy3 cluster intensity, sum of 5 cycles each) (fold (ratio)); higher = stronger signal-on switching upon ATP binding; sequences stand for … in TCGTCGGCAGCGTCAGATGTGTATAAGAGACAGTTTTTTTTTTTTTTTTTTTTTTTTT…TC", "conditions": "aptamer strand: ATP DNA aptamer (quencher-CACCTGGGGGAGTATTGCGGAGGAAGG + anchor), 100 nM annealed; ATP concentration: 500 uM; one replicate", "outline": "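Switching-strand clusters labelled with Cy3 on a modified Illumina MiSeq flow-cell were annealed to 100 nM quencher-labelled ATP aptamer, imaged in selection buffer, and re-imaged after 15 min with 500 uM ATP at 22 °C. This was done over five cycles with NaOH stripping and re-annealing in between. The fluorescence ratio is summed target-cycle over summed buffer-cycle Cy3 intensity per cluster, averaged per switch-domain sequence, excluding clusters outside 100-1000 RFU.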", "values": [{"sequence": "CATTATTGTG", "switch fluorescence ratio": 0.945}, {"sequence": "ACTGACACTT", "switch fluorescence ratio": 1.23}, {"sequence": "ACTACTATGG", "switch fluorescence ratio": 1.03}, {"sequence": "TTACCACGAG", "switch fluorescence ratio": 1.04}, {"sequence": "CGGTTGATTG", "switch fluorescence ratio": 0.981}, {"sequence": "GTCGGTTCGG", "switch fluorescence ratio": 0.944}, {"sequence": "GTCAGCGACC", "switch fluorescence ratio": 1.01}, {"sequence": "GGAGCCAGGT", "switch fluorescence ratio": 1.08}, {"sequence": "GCCTCCGGGG", "switch fluorescence ratio": 1.2}, {"sequence": "TTCGTCTCCG", "switch fluorescence ratio": 1.02}, {"sequence": "GGTGTTAATG", "switch fluorescence ratio": 0.999}, {"sequence": "TACGTATGGA", "switch fluorescence ratio": 1.08}, {"sequence": "AGTAGGTGGG", "switch fluorescence ratio": 1.01}, {"sequence": "CATTGAGGTG", "switch fluorescence ratio": 0.998}, {"sequence": "CTGAGTGC", "switch fluorescence ratio": 1.05}, {"sequence": "CCATACAGCG", "switch fluorescence ratio": 0.993}, {"sequence": "CACCTAAACG", "switch fluorescence ratio": 1.09}, {"sequence": "CGATCAATAG", "switch fluorescence ratio": 2.73}, {"sequence": "GGTAGCAGTG", "switch fluorescence ratio": 0.922}, {"sequence": "GATGGTCGGC", "switch fluorescence ratio": 0.983}, {"sequence": "TTAAAGGCT", "switch fluorescence ratio": 1.06}, {"sequence": "CGCTCCATCG", "switch fluorescence ratio": 1.06}, {"sequence": "TCGGGCGA", "switch fluorescence ratio": 1.01}, {"sequence": "TGTGCCCGGT", "switch fluorescence ratio": 0.989}, {"sequence": "TACACGTCGG", "switch fluorescence ratio": 1.03}, {"sequence": "AATCGAGTCT", "switch fluorescence ratio": 1.04}, {"sequence": "CAATCAAGCC", "switch fluorescence ratio": 0.976}, {"sequence": "GTTTCCTGTT", "switch fluorescence ratio": 0.973}, {"sequence": "GATTTTCCTG", "switch fluorescence ratio": 1.01}, {"sequence": "GATGGGTGTT", "switch fluorescence ratio": 1}, {"sequence": "CCCAGCAGCA", "switch fluorescence ratio": 1.89}, {"sequence": "CAAGTGCGCC", "switch fluorescence ratio": 0.978}, {"sequence": "AAGTTACTGC", "switch fluorescence ratio": 0.904}, {"sequence": "GATTATGAAG", "switch fluorescence ratio": 0.969}, {"sequence": "GATGGGTAGC", "switch fluorescence ratio": 1.02}, {"sequence": "AATTCGACTT", "switch fluorescence ratio": 1.04}, {"sequence": "CCGTAAGATG", "switch fluorescence ratio": 1.09}, {"sequence": "TAAGACGTG", "switch fluorescence ratio": 0.867}, {"sequence": "TGCACTGGCT", "switch fluorescence ratio": 1.09}, {"sequence": "CAGGTCATC", "switch fluorescence ratio": 0.982}, {"sequence": "GTGCTATACA", "switch fluorescence ratio": 1.03}, {"sequence": "TTATTCGACC", "switch fluorescence ratio": 1.34}, {"sequence": "AATATCCTAA", "switch fluorescence ratio": 0.982}, {"sequence": "GCCCTATAAT", "switch fluorescence ratio": 0.94}, {"sequence": "CGAGTCAACT", "switch fluorescence ratio": 1.06}, {"sequence": "TATATGGTTA", "switch fluorescence ratio": 0.99}, {"sequence": "ACGTGGCCTG", "switch fluorescence ratio": 0.998}, {"sequence": "CAGTAGTCAC", "switch fluorescence ratio": 1.11}, {"sequence": "ACCCTGAGAC", "switch fluorescence ratio": 1.06}, {"sequence": "CTAAAAGGGT", "switch fluorescence ratio": 0.974}, {"sequence": "TCTATCAGGT", "switch fluorescence ratio": 0.959}, {"sequence": "TAACCACCTC", "switch fluorescence ratio": 1.16}, {"sequence": "AATTGCCAGG", "switch fluorescence ratio": 1.14}, {"sequence": "AAAACGCTGC", "switch fluorescence ratio": 1.07}, {"sequence": "TTAGCCTTTG", "switch fluorescence ratio": 0.994}, {"sequence": "CCAGTTTGG", "switch fluorescence ratio": 0.975}, {"sequence": "GTAAGGCTCT", "switch fluorescence ratio": 0.957}, {"sequence": "ACACGTGCCA", "switch fluorescence ratio": 0.993}, {"sequence": "CATGTCATTT", "switch fluorescence ratio": 0.965}, {"sequence": "CTAGCTAGA", "switch fluorescence ratio": 1.03}, {"sequence": "AGTGAAAGTA", "switch fluorescence ratio": 1}, {"sequence": "TGTGGGCCGA", "switch fluorescence ratio": 0.982}, {"sequence": "AAGAGGCAGC", "switch fluorescence ratio": 1.02}, {"sequence": "TGACAAAGAC", "switch fluorescence ratio": 1}, {"sequence": "CTTATGCGGG", "switch fluorescence ratio": 1}, {"sequence": "ATAAGGAATC", "switch fluorescence ratio": 1.01}, {"sequence": "TAGATACGTT", "switch fluorescence ratio": 1.02}, {"sequence": "GTAGCCCCGG", "switch fluorescence ratio": 1.03}, {"sequence": "GGCGAAAAAC", "switch fluorescence ratio": 1.02}, {"sequence": "CGCGGGCGAG", "switch fluorescence ratio": 1.03}, {"sequence": "GACTAACTTG", "switch fluorescence ratio": 1.04}, {"sequence": "TCCAGGTAAT", "switch fluorescence ratio": 1.08}, {"sequence": "TGTGCGATTC", "switch fluorescence ratio": 1.32}, {"sequence": "TTTTGTGCAT", "switch fluorescence ratio": 1.22}, {"sequence": "TCTTTATAGG", "switch fluorescence ratio": 1.01}, {"sequence": "GAGCAATCT", "switch fluorescence ratio": 2.85}, {"sequence": "AGGTAGAATT", "switch fluorescence ratio": 1.01}, {"sequence": "GACGTCTCTT", "switch fluorescence ratio": 1.02}, {"sequence": "TGTTGCGTCA", "switch fluorescence ratio": 1.04}, {"sequence": "TAGCAGCGCC", "switch fluorescence ratio": 0.994}, {"sequence": "GCCACTCTTC", "switch fluorescence ratio": 0.998}, {"sequence": "CATTTCGCAA", "switch fluorescence ratio": 1.06}, {"sequence": "TTGCCACTTT", "switch fluorescence ratio": 1.01}, {"sequence": "CCAAATACT", "switch fluorescence ratio": 2.18}, {"sequence": "CCGCCCGAGC", "switch fluorescence ratio": 4.67}, {"sequence": "ATGGCTAGTT", "switch fluorescence ratio": 0.97}, {"sequence": "CCCTCAAATT", "switch fluorescence ratio": 1.16}, {"sequence": "CCCGGGGTC", "switch fluorescence ratio": 1}, {"sequence": "CAGGTCGTC", "switch fluorescence ratio": 0.966}, {"sequence": "GGATCTCTGC", "switch fluorescence ratio": 0.967}, {"sequence": "CACCTCAACG", "switch fluorescence ratio": 1.14}, {"sequence": "TGGAGATTCT", "switch fluorescence ratio": 0.959}, {"sequence": "ATGTGATCGG", "switch fluorescence ratio": 0.994}, {"sequence": "GTAGGCCGCG", "switch fluorescence ratio": 0.971}, {"sequence": "CGTCTTTATG", "switch fluorescence ratio": 0.981}, {"sequence": "AAACACAGCG", "switch fluorescence ratio": 1.04}, {"sequence": "ACTCAGCAAA", "switch fluorescence ratio": 3.37}, {"sequence": "AGCGTTTTG", "switch fluorescence ratio": 0.993}, {"sequence": "GATAATGATA", "switch fluorescence ratio": 0.988}, {"sequence": "CTTCTAAACG", "switch fluorescence ratio": 1.12}, {"sequence": "CATCTATAAT", "switch fluorescence ratio": 0.995}, {"sequence": "GCTGGCGCT", "switch fluorescence ratio": 0.962}, {"sequence": "CGTACCCTGG", "switch fluorescence ratio": 1.26}, {"sequence": "TCGATAGTGG", "switch fluorescence ratio": 1.01}, {"sequence": "TTGGCAGGAA", "switch fluorescence ratio": 0.998}, {"sequence": "CGAGGCATCC", "switch fluorescence ratio": 1.49}, {"sequence": "TTCACTCCCT", "switch fluorescence ratio": 1.34}, {"sequence": "TGGAGAGACT", "switch fluorescence ratio": 1.06}, {"sequence": "TGGTTGGCGC", "switch fluorescence ratio": 0.955}, {"sequence": "AACCGACTCG", "switch fluorescence ratio": 1.96}, {"sequence": "ATAAGTGCA", "switch fluorescence ratio": 0.978}, {"sequence": "AGCTAATAT", "switch fluorescence ratio": 1.1}, {"sequence": "TCTTTAGTGG", "switch fluorescence ratio": 1.02}, {"sequence": "ATTGGGATAG", "switch fluorescence ratio": 0.997}, {"sequence": "ACAATACACC", "switch fluorescence ratio": 1.65}, {"sequence": "TATACAAGTG", "switch fluorescence ratio": 1.02}, {"sequence": "TTTGTCGAGA", "switch fluorescence ratio": 0.961}, {"sequence": "ATACTCTCTG", "switch fluorescence ratio": 1.01}, {"sequence": "CTGAGGTTTG", "switch fluorescence ratio": 0.954}, {"sequence": "CACACAACGG", "switch fluorescence ratio": 1.21}, {"sequence": "GAACCCGCG", "switch fluorescence ratio": 1.07}, {"sequence": "GCGTACTTTT", "switch fluorescence ratio": 1}, {"sequence": "CTTGTGGTGA", "switch fluorescence ratio": 1}, {"sequence": "TTAATAGTT", "switch fluorescence ratio": 0.994}, {"sequence": "GTCTGATTCC", "switch fluorescence ratio": 1.01}, {"sequence": "TTTACTTACA", "switch fluorescence ratio": 1.42}, {"sequence": "GATGGTTATA", "switch fluorescence ratio": 1.04}, {"sequence": "GGAGGTTTTG", "switch fluorescence ratio": 0.954}, {"sequence": "CGGTGCAGAA", "switch fluorescence ratio": 1.03}, {"sequence": "CAGGCTAGGA", "switch fluorescence ratio": 0.99}, {"sequence": "GCTATAACGC", "switch fluorescence ratio": 1.01}, {"sequence": "CCTCAGAAAT", "switch fluorescence ratio": 2.35}, {"sequence": "TAACATTTTA", "switch fluorescence ratio": 0.971}, {"sequence": "GGATTTAACA", "switch fluorescence ratio": 0.948}, {"sequence": "TATCGGCGC", "switch fluorescence ratio": 1.02}, {"sequence": "AAGTGGCGAC", "switch fluorescence ratio": 0.992}, {"sequence": "CCAAAGATTC", "switch fluorescence ratio": 1.11}, {"sequence": "TCAAGGGTAC", "switch fluorescence ratio": 1.02}, {"sequence": "TAACGCAGGA", "switch fluorescence ratio": 1.11}, {"sequence": "CTTAAAGGTG", "switch fluorescence ratio": 1.28}, {"sequence": "ATGGTGTTAG", "switch fluorescence ratio": 1.02}, {"sequence": "GCACCCGGGA", "switch fluorescence ratio": 1.02}, {"sequence": "TACAATGTC", "switch fluorescence ratio": 1.09}, {"sequence": "CGCCTTGGTG", "switch fluorescence ratio": 1.52}, {"sequence": "CTATTTGTGC", "switch fluorescence ratio": 1}, {"sequence": "CCAATGACAC", "switch fluorescence ratio": 1.24}, {"sequence": "AATAGCTTGC", "switch fluorescence ratio": 0.897}, {"sequence": "GGTACCGGCT", "switch fluorescence ratio": 0.929}, {"sequence": "CGTCGGCCGG", "switch fluorescence ratio": 1.03}, {"sequence": "TAGTGTCCGC", "switch fluorescence ratio": 1.03}, {"sequence": "ATTCGGGCTA", "switch fluorescence ratio": 0.998}, {"sequence": "ACGCACTGCG", "switch fluorescence ratio": 1.06}, {"sequence": "TGACCGCTAG", "switch fluorescence ratio": 1.04}, {"sequence": "TCTTTTCGT", "switch fluorescence ratio": 1.04}, {"sequence": "AGTGCATGG", "switch fluorescence ratio": 1.03}, {"sequence": "AACCCCTATT", "switch fluorescence ratio": 1.01}, {"sequence": "CGGAAATT", "switch fluorescence ratio": 1}, {"sequence": "ATATGTTACC", "switch fluorescence ratio": 1.02}]}]}
